From paper PMC6855800 come the findings set out here.

The chains behind the UniProt entries cited, without tags or fusion partners. Where a name states a change or a piece, a line headed by the entry shows the natural chain unless it says otherwise.
UniProt Q9QR71: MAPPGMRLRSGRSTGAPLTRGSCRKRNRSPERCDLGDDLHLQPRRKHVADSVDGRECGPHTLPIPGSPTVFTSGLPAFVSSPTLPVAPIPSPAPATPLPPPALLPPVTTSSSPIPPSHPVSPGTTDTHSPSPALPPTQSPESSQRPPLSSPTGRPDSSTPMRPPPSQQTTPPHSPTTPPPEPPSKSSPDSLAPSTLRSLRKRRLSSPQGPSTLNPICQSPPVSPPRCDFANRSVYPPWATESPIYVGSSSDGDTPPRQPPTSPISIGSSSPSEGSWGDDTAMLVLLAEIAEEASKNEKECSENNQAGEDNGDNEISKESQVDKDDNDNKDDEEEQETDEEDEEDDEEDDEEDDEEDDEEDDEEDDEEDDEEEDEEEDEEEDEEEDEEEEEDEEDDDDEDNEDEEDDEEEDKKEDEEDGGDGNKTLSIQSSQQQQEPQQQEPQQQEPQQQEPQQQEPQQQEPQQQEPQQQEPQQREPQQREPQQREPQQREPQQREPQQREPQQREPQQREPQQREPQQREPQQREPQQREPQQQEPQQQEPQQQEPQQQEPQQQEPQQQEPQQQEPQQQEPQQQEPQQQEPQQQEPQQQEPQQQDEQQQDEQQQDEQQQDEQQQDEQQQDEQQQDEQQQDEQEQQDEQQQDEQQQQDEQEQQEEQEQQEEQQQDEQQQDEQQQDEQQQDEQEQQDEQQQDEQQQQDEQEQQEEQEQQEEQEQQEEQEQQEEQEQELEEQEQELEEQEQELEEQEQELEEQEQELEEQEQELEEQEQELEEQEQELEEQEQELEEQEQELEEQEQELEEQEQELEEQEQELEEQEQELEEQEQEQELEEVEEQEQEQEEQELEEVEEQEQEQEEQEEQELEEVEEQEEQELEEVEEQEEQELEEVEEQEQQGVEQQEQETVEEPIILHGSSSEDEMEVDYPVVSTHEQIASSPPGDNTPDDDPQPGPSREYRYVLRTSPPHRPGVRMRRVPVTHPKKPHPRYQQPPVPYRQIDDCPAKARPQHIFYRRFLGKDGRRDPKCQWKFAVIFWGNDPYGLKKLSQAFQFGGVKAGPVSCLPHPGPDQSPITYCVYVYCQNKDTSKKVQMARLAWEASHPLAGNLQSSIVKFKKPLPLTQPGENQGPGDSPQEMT
UniProt Q16666: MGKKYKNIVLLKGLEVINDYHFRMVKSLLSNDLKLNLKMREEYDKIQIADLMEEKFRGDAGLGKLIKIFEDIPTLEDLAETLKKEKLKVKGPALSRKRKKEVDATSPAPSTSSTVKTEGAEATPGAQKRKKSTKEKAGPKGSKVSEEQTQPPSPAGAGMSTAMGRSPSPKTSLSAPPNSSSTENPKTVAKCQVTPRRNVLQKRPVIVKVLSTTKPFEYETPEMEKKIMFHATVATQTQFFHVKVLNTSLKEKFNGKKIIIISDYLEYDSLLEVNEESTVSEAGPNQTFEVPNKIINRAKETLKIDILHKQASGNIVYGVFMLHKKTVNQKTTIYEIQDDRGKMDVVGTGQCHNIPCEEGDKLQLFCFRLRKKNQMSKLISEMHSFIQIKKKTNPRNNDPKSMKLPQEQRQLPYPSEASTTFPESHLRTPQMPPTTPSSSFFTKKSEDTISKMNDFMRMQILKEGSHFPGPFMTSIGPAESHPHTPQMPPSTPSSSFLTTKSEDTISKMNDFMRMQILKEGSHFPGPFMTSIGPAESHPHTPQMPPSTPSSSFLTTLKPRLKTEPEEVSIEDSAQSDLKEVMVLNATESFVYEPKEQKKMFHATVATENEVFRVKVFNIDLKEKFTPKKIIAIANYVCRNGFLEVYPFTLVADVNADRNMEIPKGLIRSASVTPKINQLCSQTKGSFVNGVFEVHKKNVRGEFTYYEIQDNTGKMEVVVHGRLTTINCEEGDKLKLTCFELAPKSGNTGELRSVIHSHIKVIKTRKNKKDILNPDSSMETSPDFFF
UniProt Q15910: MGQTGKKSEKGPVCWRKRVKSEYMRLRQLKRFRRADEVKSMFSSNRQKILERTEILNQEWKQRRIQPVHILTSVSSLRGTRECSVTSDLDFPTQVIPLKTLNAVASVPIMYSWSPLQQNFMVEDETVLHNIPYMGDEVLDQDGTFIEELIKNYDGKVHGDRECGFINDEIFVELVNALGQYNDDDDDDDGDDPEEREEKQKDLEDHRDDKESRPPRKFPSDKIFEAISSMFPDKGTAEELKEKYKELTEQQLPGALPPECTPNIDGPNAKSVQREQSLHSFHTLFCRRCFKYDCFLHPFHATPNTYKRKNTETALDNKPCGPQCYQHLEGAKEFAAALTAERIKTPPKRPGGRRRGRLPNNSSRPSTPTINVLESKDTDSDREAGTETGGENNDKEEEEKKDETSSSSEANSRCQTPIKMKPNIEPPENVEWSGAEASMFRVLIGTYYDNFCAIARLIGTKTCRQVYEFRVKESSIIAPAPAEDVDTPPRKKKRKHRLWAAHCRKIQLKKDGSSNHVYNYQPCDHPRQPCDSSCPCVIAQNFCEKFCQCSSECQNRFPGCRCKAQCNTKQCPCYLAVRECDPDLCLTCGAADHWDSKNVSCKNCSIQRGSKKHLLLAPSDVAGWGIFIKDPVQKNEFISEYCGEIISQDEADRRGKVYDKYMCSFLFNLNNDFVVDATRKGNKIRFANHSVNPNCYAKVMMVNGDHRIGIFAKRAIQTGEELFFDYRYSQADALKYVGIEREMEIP
UniProt Q9H9B1: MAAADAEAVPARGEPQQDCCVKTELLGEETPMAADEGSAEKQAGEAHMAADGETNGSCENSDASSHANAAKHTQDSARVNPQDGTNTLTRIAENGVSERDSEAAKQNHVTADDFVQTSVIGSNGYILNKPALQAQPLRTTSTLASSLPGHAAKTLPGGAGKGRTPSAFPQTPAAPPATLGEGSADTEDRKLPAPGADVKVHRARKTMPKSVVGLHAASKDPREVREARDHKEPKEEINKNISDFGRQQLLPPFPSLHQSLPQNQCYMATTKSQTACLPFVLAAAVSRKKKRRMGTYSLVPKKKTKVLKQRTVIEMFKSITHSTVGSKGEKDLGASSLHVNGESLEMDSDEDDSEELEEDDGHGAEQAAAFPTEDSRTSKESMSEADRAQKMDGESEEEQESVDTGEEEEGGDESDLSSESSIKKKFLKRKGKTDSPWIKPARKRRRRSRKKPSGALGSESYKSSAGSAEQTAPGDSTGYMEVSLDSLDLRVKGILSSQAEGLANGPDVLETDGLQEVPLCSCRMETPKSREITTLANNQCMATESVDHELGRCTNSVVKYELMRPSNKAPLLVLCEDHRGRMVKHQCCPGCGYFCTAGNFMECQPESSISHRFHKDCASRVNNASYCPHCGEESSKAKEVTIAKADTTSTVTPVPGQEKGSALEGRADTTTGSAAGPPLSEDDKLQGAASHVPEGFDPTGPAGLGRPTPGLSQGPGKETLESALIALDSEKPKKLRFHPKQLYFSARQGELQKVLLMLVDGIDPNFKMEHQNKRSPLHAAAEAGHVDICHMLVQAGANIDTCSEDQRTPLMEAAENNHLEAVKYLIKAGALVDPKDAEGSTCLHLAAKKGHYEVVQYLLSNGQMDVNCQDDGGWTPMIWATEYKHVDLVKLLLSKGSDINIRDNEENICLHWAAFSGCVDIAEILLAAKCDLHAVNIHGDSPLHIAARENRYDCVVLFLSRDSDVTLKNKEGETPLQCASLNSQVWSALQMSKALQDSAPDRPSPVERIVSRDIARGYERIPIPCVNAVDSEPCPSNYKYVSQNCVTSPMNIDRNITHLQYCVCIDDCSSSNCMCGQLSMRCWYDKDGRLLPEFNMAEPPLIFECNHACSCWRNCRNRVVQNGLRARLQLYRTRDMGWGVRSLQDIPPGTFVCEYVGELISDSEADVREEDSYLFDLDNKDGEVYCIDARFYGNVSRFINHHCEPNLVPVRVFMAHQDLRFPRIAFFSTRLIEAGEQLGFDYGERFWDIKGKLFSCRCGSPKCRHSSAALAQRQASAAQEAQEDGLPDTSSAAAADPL
UniProt Q13029: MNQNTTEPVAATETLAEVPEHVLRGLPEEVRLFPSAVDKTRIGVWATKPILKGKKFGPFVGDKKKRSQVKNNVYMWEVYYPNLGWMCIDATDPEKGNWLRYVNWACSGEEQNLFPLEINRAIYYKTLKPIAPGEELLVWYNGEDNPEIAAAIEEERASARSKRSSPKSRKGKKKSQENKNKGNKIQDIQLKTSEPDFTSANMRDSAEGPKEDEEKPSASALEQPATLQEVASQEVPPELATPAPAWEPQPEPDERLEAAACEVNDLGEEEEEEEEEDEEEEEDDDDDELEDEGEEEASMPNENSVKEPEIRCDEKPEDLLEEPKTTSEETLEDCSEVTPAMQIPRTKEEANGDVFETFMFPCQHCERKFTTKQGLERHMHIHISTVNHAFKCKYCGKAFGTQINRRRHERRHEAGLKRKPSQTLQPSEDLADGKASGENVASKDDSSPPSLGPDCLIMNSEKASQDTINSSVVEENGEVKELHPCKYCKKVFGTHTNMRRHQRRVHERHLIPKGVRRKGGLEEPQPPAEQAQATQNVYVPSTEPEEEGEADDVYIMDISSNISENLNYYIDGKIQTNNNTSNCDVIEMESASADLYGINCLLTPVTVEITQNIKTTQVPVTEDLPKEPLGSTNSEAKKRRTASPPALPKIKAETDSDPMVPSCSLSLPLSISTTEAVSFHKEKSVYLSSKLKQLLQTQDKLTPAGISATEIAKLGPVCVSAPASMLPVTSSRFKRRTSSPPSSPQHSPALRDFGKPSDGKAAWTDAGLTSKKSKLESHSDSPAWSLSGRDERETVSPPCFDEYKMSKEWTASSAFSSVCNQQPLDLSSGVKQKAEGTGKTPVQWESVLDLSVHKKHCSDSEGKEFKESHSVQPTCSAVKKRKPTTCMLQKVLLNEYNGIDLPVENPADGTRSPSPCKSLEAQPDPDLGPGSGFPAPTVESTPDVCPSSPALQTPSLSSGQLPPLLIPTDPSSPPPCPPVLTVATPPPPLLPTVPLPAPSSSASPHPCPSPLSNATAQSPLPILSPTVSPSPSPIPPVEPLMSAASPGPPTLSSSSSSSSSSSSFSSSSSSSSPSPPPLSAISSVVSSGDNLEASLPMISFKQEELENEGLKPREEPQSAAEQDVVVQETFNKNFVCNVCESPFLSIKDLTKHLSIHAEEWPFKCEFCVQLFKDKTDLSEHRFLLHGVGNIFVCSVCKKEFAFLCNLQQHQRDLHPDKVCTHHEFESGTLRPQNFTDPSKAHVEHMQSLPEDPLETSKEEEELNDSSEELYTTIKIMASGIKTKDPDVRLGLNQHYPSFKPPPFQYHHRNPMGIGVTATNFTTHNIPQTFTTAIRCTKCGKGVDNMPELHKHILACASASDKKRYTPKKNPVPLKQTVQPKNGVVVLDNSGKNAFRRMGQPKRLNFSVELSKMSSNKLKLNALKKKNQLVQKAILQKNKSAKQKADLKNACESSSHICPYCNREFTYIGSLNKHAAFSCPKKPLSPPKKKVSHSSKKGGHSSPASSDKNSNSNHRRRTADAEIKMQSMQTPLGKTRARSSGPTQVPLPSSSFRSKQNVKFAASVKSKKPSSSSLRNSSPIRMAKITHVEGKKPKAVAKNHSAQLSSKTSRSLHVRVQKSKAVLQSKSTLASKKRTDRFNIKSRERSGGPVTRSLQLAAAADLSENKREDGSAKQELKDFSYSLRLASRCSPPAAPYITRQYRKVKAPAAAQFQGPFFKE
UniProt Q9H5I1: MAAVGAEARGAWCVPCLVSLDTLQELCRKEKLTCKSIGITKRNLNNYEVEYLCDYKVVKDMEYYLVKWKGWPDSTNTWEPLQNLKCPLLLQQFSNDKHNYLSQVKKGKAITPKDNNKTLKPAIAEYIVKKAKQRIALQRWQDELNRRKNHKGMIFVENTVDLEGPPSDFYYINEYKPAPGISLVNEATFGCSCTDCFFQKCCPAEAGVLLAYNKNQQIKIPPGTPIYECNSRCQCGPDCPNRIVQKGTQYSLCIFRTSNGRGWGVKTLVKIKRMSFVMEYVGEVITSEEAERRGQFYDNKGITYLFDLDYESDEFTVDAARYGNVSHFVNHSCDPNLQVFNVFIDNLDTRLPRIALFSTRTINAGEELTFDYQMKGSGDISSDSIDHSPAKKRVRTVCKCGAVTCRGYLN
UniProt Q9ULZ3: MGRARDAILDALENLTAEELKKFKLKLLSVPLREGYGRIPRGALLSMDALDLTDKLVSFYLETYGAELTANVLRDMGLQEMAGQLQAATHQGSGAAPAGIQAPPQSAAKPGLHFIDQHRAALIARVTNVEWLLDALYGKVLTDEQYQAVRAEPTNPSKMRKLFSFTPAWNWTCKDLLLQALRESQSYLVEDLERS
UniProt P45973: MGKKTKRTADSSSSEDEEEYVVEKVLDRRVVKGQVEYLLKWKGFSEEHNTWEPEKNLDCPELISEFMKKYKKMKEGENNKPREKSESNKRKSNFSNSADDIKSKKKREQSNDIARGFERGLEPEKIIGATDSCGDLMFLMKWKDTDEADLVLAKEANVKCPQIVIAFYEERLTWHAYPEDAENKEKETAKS

The target in assay [1] is LANA1, a KSHV latent protein (Kaposi's sarcoma associated herpesvirus (KSHV)) (UniProt Q9QR71). In words: co-IP; IP with anti-IFI16 mAb or anti-LANA antibody from benzonase-treated nuclear fractions of BCBL-1, BC-3 and BJAB cells; Protein A/G sepharose, overnight 4°C; wash 150 mM NaCl, 1% Triton X-100; western blot. For orientation: Immunoblotting shows a protein as a band on a membrane.

In assay [2] the target is IFI16 (Interferon-γ-inducible protein 16) (human (endogenous in BCBL-1, BC-3, BJAB, TIME)) (UniProt Q16666). The experiment in a line: proximity ligation; Duolink PLA in fixed TIME cells, uninfected or 24 hr after infection with EdU-labeled KSHV; anti-IFI16 with antibody to the H3K9 MTase; isotype IgG as control.
Assay [3] concerns the target untagged IFI16 expressed ectopically in 293T cells (human) (UniProt Q16666). The experiment in a line: co-IP; 293T cells transfected with control, IFI16 or LANA plasmid for 72 hr; IP with anti-IFI16 mAb or LANA mAb; western blot.
Assay [4] addresses IFI16 (Interferon-γ-inducible protein 16) (human (endogenous in BCBL-1, BC-3, BJAB, TIME)) (UniProt Q16666). The experiment in a line: co-IP; IP with anti-IFI16 mAb or anti-LANA antibody from benzonase-treated nuclear fractions of BCBL-1, BC-3 and BJAB cells; Protein A/G sepharose, overnight 4°C; wash 150 mM NaCl, 1% Triton X-100; western blot.
Assay [5] shares this target. In words: co-IP; IP with anti-IFI16 antibodies from benzonase-treated nuclear fractions of TIME cells, mock infected or infected with KSHV for 6 or 24 hr; western blot.
Assay [6] concerns the target T1, Suppressor of variegation 3–9 homolog 1 (SUV39H1) (human (endogenous in BCBL-1, BC-3, BJAB, TIME, 293T)) (UniProt O43463).
T1 sequence: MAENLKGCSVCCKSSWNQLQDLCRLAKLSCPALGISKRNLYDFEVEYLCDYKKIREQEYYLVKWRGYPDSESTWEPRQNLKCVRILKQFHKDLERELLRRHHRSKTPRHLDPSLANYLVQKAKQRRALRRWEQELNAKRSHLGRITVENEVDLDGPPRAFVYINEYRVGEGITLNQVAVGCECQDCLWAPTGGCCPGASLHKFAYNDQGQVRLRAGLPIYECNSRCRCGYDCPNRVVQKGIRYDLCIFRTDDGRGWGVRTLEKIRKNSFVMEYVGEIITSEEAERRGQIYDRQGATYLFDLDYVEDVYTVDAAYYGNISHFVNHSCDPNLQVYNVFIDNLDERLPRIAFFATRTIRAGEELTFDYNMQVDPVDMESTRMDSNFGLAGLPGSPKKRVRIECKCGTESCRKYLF
The experiment in a line: co-IP; reverse co-IP: IP with antibodies against the H3K9 MTases (and EZH2) from nuclear fractions of BCBL-1, BC-3 and BJAB cells; blotted for the MTase, IFI16, LANA and HP1α.

The target of assay [7] is EZH2 (H3K27 methylating PRC2 complex protein) (human (endogenous in BCBL-1, BC-3, BJAB, 293T)) (UniProt Q15910). The assay is described as above.
Assay [8] deals with G9a-like protein (GLP) (human (endogenous in BCBL-1, BC-3, BJAB, TIME, 293T)) (UniProt Q9H9B1). Described as above.
For assay [9], the target named is T1, Suppressor of variegation 3–9 homolog 1 (SUV39H1) (human (endogenous in BCBL-1, BC-3, BJAB, TIME, 293T)). In words: co-IP; reverse co-IP: IP with antibodies against the MTases from TIME cells, uninfected or infected with KSHV for 6 or 24 hr; blotted for the MTase and IFI16.
In assay [10] the target is G9a-like protein (GLP) (human (endogenous in BCBL-1, BC-3, BJAB, TIME, 293T)) (UniProt Q9H9B1). The description is as above.
Assay [11] concerns the target RIZ1 (human (endogenous in BCBL-1, BC-3, BJAB, TIME, 293T)) (UniProt Q13029). The experiment in a line: co-IP; reverse co-IP: IP with antibodies against the H3K9 MTases (and EZH2) from nuclear fractions of BCBL-1, BC-3 and BJAB cells; blotted for the MTase, IFI16, LANA and HP1α.
Assay [12] concerns the target G9A (human (endogenous in BCBL-1, BC-3, BJAB, TIME, 293T)) (UniProt Q96KQ7). Described as above.
In assay [13] the target is SUV39H2 (human (endogenous in BCBL-1, BC-3, BJAB, TIME, 293T)) (UniProt Q9H5I1). The description is as above.
Assay [14] addresses T2, SETDB2 (human (endogenous in BCBL-1, BC-3, BJAB, TIME, 293T)) (UniProt Q96T68).
T2 sequence: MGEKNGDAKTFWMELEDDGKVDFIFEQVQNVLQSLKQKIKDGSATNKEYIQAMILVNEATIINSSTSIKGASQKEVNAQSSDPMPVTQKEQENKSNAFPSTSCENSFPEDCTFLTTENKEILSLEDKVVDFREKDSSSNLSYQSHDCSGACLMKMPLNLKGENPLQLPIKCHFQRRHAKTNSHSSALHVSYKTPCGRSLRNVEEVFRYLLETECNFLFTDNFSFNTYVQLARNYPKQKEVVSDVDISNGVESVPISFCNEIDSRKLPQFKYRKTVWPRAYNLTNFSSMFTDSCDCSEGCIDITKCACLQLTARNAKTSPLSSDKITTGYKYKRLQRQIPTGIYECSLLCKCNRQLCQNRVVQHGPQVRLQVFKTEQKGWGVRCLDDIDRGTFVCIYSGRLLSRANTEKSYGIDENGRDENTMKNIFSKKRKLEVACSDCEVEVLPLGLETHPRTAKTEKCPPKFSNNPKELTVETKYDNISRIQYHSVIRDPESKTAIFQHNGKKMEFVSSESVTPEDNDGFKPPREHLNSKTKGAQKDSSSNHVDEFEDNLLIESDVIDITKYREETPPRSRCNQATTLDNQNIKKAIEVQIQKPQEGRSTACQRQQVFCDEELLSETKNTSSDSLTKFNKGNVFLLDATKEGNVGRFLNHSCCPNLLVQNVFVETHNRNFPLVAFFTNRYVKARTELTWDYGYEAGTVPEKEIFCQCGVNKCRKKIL
Described as above.

For assay [15], the target named is LANA-1 expressed ectopically in 293T cells (pCI-neo full-length LANA-1) (Kaposi's sarcoma associated herpesvirus (KSHV)) (UniProt Q9QR71). The experiment in a line: co-IP; 293T cells transfected with control, IFI16 or LANA plasmid for 72 hr; IP with anti-IFI16 mAb or LANA mAb; western blot.

These are yes or no findings as the source states them, for the method shown. In cells and extracts the contact can be indirect. Some results given as binding are weak or reduced against the parent protein; the word gives no strength.

For the molecule ASC (from UniProt Q9ULZ3 1-195), in assay [1], the binding result is “no binding”.
In the case of “G9A (from UniProt Q96KQ7 1-1210) (enzyme)”, the binding result in [1] is reported as “no binding”.
Turning to “G9a-like protein (GLP) (from UniProt Q9H9B1 1-1298) (enzyme)”, the binding entry in [2] was “binds”; in assay [3], “binds”; in [4], “binds”; in assay [1], “no binding”; in assay [5], “binds”.
For the molecule “IFI16 (Interferon-γ-inducible protein 16) (from UniProt Q16666 1-785)”, the binding result was “binds” in assay [6]; “no binding” in assay [7]; “binds” in assay [8]; “binds” in assay [9]; “binds” in assay [10].
For the molecule “LANA1, a KSHV latent protein (from UniProt Q9QR71 1-1129)”, the binding result is listed as “no binding” in assay [11]; “no binding” in assay [6]; “no binding” in assay [12]; “binds” in [7]; “no binding” in [13]; “binds” in assay [14]. For the same molecule, in assay [8], the binding result is “no binding”.
Take “RIZ1 (from UniProt Q13029-1 1-1718) (enzyme)”: in assay [1], the binding entry is recorded as “no binding”.
Regarding “SETDB2 (from UniProt Q96T68 1-719) (enzyme)”, the binding entry in assay [1] was “binds”.
As to “SUV39H2 (from UniProt Q9H5I1 1-410) (enzyme)”, the binding entry in assay [1] is recorded as “no binding”.
On to “heterochromatin protein 1-α (HP1α) (from UniProt P45973 1-191)”, for which the binding result in [11] was “no binding”; in assay [6] it was “binds”; in assay [7], “binds”; in [13], “binds”; in assay [14] it was “binds”; in assay [1], “no binding”.

B1: Suppressor of variegation 3–9 homolog 1 (SUV39H1) (enzyme, UniProt O43463 1-412)
chain: MAENLKGCSVCCKSSWNQLQDLCRLAKLSCPALGISKRNLYDFEVEYLCDYKKIREQEYYLVKWRGYPDSESTWEPRQNLKCVRILKQFHKDLERELLRRHHRSKTPRHLDPSLANYLVQKAKQRRALRRWEQELNAKRSHLGRITVENEVDLDGPPRAFVYINEYRVGEGITLNQVAVGCECQDCLWAPTGGCCPGASLHKFAYNDQGQVRLRAGLPIYECNSRCRCGYDCPNRVVQKGIRYDLCIFRTDDGRGWGVRTLEKIRKNSFVMEYVGEIITSEEAERRGQIYDRQGATYLFDLDYVEDVYTVDAAYYGNISHFVNHSCDPNLQVYNVFIDNLDERLPRIAFFATRTIRAGEELTFDYNMQVDPVDMESTRMDSNFGLAGLPGSPKKRVRIECKCGTESCRKYLF
Take B1: the binding result in assay [2] is given as “binds”; in assay [15], “no binding”; in assay [3] it was “binds”; in [4], “binds”; in assay [1], “no binding”; in [5], “binds”.
